Hit rate of the full screen: of about 350,000 compounds, about 31,000 (8.9%) were called active. Inconclusive results, whose numbers are uncertain, are shown with a selection of clear calls. Calls come from the whole dose curve; as a rule, active = well fitted inhibition curve with a large enough effect; inconclusive = small, poorly fitted or top-dose-only effect; inactive = no such curve, though single readings can be large or run the other way. Potencies of inconclusive entries are doubtful fits and often do not repeat.
target: Histone-lysine N-methyltransferase EHMT2 (Homo sapiens) (UniProt Q96KQ7); assay: qHTS Assay for Inhibitors of Histone Lysine Methyltransferase G9a; details: G9a H3K9 monomethylation, AlphaScreen, 2 h; activity, negative = inhibition: at 59 µM (top of the series) unless noted; note: nearly all actives have a fitted effect of over 75% in size
Sequence of UniProt Q96KQ7 (Q96KQ7 whole entry, looked up): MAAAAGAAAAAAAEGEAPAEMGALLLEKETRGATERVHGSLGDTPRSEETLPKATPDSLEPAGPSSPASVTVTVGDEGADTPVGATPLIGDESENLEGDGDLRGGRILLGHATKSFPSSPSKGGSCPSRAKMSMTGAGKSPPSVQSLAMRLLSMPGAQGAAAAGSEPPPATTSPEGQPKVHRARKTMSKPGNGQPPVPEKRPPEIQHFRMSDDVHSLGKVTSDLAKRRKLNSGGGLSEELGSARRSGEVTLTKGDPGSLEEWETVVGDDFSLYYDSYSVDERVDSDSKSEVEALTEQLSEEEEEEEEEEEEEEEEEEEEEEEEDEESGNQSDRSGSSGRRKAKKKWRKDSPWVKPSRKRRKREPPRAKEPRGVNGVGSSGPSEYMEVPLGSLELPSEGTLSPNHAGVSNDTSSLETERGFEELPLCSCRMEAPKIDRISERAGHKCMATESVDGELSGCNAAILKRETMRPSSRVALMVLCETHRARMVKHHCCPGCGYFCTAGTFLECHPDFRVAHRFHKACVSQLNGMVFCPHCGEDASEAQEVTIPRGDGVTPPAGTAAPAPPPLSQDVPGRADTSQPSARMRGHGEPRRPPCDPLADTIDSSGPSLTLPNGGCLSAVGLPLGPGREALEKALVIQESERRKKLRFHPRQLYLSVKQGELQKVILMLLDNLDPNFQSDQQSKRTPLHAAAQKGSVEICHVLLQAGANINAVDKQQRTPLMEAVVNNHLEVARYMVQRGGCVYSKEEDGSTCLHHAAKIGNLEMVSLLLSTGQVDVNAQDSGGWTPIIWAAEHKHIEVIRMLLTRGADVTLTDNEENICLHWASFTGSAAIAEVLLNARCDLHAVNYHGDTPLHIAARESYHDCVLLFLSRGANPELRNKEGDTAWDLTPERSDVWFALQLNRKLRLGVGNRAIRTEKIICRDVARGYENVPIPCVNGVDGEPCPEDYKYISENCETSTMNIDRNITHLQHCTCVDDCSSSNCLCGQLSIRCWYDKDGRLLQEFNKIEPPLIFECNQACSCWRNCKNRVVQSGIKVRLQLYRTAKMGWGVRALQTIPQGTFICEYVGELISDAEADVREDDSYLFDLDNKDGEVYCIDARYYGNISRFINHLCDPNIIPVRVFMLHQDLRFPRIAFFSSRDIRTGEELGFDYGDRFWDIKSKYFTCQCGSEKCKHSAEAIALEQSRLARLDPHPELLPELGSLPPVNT
Method in brief: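 G9a (20 nM) was preincubated 15 min with compound, then reacted 2 h at room temperature with 500 nM biotin-H3K9 peptide and 20 µM SAM. Monomethyl-H3K9 detected by AlphaScreen using anti-H3K9me1 antibody.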
% is set by controls: 0 for no effect and ±100 for the full control effect; potency is the fitted concentration of half-maximal effect; tags give direction and shape of the fitted curve.

SMILES | activity, negative = inhibition | Potency
COc1ccc(Cl)cc1NS(=O)(=O)c1cccc(C(=O)NCC(C)(C)N2CCOCC2)c1 | inactive: 19.6% [at 12.7 µM] | 
CCOc1ccccc1NC(=O)CN1C(=O)COc2ccc(S(=O)(=O)Nc3ccccc3)cc21 | inactive: -25.3% | 
COc1ccc(-c2nn(CC(=O)NCc3ccccc3)c3c2cnc2ccc(F)cc23)cc1 | inactive: 3.37% | 
COC(=O)c1ccccc1NC1c2ccccc2C(=O)N1c1cccnc1 (stereo unspecified) |  | inconclusive: 25.1 µM [inhibitor, single point]
COc1ccccc1NC(=S)NCc1ccco1 |  | inconclusive: 7.08 µM [inhibitor, single point]
S=c1[nH]nc(-c2ccco2)n1/N=C/C=C/c1ccco1 |  | active: 1.41 µM
O=C(NCc1cccs1)c1nn(-c2ccccc2F)nc1CO | inactive: -1.01% | 
CC1CC(C)(C)NC(=S)N1CC(=O)NCc1ccc2c(c1)OCO2 (stereo unspecified) |  | inconclusive: 31.6 µM [inhibitor, partial curve]
CCNC1=C(Cl)C(=O)c2ccccc2C1=O |  | inconclusive: 39.8 µM [inhibitor, single point]
O=C(Nc1ccc(Nc2ccccc2)cc1)C(Cl)(Cl)Cl |  | inconclusive: 10 µM [inhibitor, partial curve, poor fit]
CN(C)S(=O)(=O)c1cccc2c1C(=O)c1ccccc1C2=O |  | inconclusive: 89.1 µM [inhibitor, single point]
CCN1C(=O)[C@H]2[C@@H](c3ccc(-c4cccc(Cl)c4)cc3)N[C@@](C)(C(=O)OC)[C@H]2C1=O | inactive: -0.956% [at 2.33 µM] | 
Cc1cc(N2C(=O)C(O)=C(C(=O)c3cccs3)C2c2ccccc2)no1 (stereo unspecified) | inactive: 7.11% | 
O=C1NN(c2cccc(Br)c2)C(=O)/C1=C/c1cccs1 | inconclusive: -92% [inhibitor] | 
CN(CC(=O)Nc1ccc(F)cc1)C(=O)c1ccc2ccccc2n1 |  | inconclusive: 79.4 µM [inhibitor, partial curve, poor fit]
COC(=O)c1ccc(CSc2ccc3nnc(-c4cccc(F)c4)n3n2)o1 |  | active: 17.8 µM
CCn1c(SCc2ccc(C(=O)Nc3nccs3)cc2)nnc1-c1ccc(N)cc1 | inconclusive: -58.3% [inhibitor] | 
Cc1cc(C(C)(C)C)ccc1OCCCCN1CCCC1 |  | inconclusive: 28.2 µM [inhibitor, single point]
Cc1cc(C)c2nc(N3C(=O)C(O)=C(C(=O)c4ccco4)C3c3ccc(O)cc3)sc2c1 (stereo unspecified) |  | inconclusive: 4.47 µM [inhibitor, single point]
Cc1ccc(-c2nc3nc(C)cc(N4CCN(c5cccc(C)c5)C(C)C4)n3n2)cc1 (stereo unspecified) | inactive: -31.4% | 
CN(C)/C=C/C(=O)c1cnc(-c2ccccc2Cl)s1 | inactive: -28% [at 102 µM] | 
CCCc1nc2cc3c(cc2[nH]1)n(C)c(=O)n3C |  | inconclusive: 56.2 µM [inhibitor, partial curve, poor fit]
Cc1ccc(C(CC(=O)O)NC(=O)c2ccc(S(=O)(=O)N3CC(C)OC(C)C3)cc2)cc1 (stereo unspecified) | inactive: 15.1% [at 12.7 µM] | 
Cc1cnc(C(=O)OC(C)C(=O)Nc2cccc3ccccc23)cn1 (stereo unspecified) |  | inconclusive: 56.2 µM [inhibitor, partial curve, poor fit]

SMILES | activity, negative = inhibition | Potency
COc1cc(/C=N/NC(=O)c2cccc(S(=O)(=O)N3CCCC3)c2)cc(OC)c1O |  | active: 14.1 µM
CCOc1ccc(N=c2scc(-c3ccc(OC)cc3)n2CCO)cc1 |  | active: 2.82 µM
COc1cccc(C(=O)Nc2nc3nc(C)c(C)c(=O)n3[nH]2)c1 |  | inconclusive: 28.2 µM [inhibitor, partial curve, poor fit]
O=C(CCSCc1ccccc1Cl)NC1CCCCC1 | inactive: -25.4% [at 102 µM] | 
O=C(Nn1c(-c2ccc(Br)cc2)nc2ccccc2c1=O)c1ccncc1 |  | inconclusive: 100 µM [inhibitor, single point]
CCN(CC(=O)Nc1cc(Cl)ccc1C)C(=O)CN1C(=O)NC2(CCCC2)C1=O |  | inconclusive: 56.2 µM [inhibitor, partial curve]
CCOc1ccc(N2C(=O)/C(=C/c3cccs3)N(C)C2=S)cc1 |  | inconclusive: 0.447 µM [inhibitor, full curve, poor fit]
CCc1cc(=O)oc2c(C)c(OC(C)C(=O)NCC3CCC(C(=O)O)CC3)ccc12 (stereo unspecified) | inactive: -24.9% [at 102 µM] | 
Cc1nc(NC(=O)CSc2nnc(C3CC3)n2C)sc1C | inactive: 26.9% [at 102 µM] | 
CCOC(=O)c1cc(C#N)c(=S)[nH]c1C |  | active: 10 µM
COc1cc(NC(=O)NCCN2CCN(c3ccc(Cl)cc3)CC2)ccc1C |  | inconclusive: 3.16 µM [inhibitor, partial curve, poor fit]
Nc1cc(C(F)(F)F)cc([N+](=O)[O-])c1N |  | inconclusive: 50.1 µM [inhibitor, partial curve]
CC(=O)N1N=C2c3ccccc3CCC2C1c1ccc(F)cc1 (stereo unspecified) | inactive: 6.29% [at 102 µM] | 
COc1ccc(NC(=S)N2CCC(Cc3ccccc3)CC2)cc1OC |  | active: 70.8 µM
CCOC1=NN(c2ccc(Cl)cc2)C(=O)/C1=C\N(C)C |  | active: 56.2 µM
COc1ccc(/C(C)=N/Nc2nc3ccccc3nc2C)cc1 |  | active: 35.5 µM
CC(=O)Oc1ccc(C(=O)Nc2cccc(-c3nnc(-c4ccco4)o3)c2)cc1 |  | active: 50.1 µM
S=c1[nH]nc2nnc3ccccc3n12 |  | active: 3.16 µM
O=C1Nc2ccccc2C12Nc1ccccc1S2 (stereo unspecified) |  | inconclusive: 1.12 µM [inhibitor, single point]
CCNC(=O)C1CCCN(c2nnc(C)c3c(C)n(-c4ccc(C)cc4)nc23)C1 (stereo unspecified) |  | inconclusive: 6.31 µM [inhibitor, partial curve, poor fit]
CCOC(=O)c1c(C)[nH]c(C)c1S(=O)(=O)N1CCCC(C(=O)Nc2ccc(C)c(N(C)C)c2)C1 (stereo unspecified) | inactive: -32.8% | 
COC(=O)c1ccccc1NC(=O)C1(c2cccs2)CCOCC1 | inactive: -13.4% | 
c1cc(Nc2cccc3nccnc23)c2nccnc2c1 |  | inconclusive: 1.26 µM [inhibitor, partial curve, poor fit]
CCC1(C)N=C(N)Nc2nc3cc(C)c(C)cc3n21 (stereo unspecified) |  | inconclusive: 50.1 µM [inhibitor, partial curve]

SMILES | activity, negative = inhibition | Potency
Cn1c(-c2ccccc2)c[n+]2c1CCCCC2 |  | inconclusive: 5.62 µM [inhibitor, partial curve, poor fit]
COC(=O)c1ccc2c(c1)NC1=C(C(=O)CC(C)(C)C1)C(c1ccncc1)N2 (stereo unspecified) |  | inconclusive: 63.1 µM [inhibitor, partial curve, poor fit]
COC1OC(CO)C(OC2OC(C(=O)O)C(OC3OC(COS(=O)(=O)O)C(OC4OC(C(=O)O)C(OC5OC(CO)C(OC6OC(C(=O)O)C(OC7OC(COS(=O)(=O)O)C(OC8OC(C(=O)O)=C[C@H](O)C8OS(=O)(=O)O)C(O)C7NC(C)=O)[C@@H](O)C6O)C(O)C5NC(C)=O)[C@@H](O)C4O)C(O)C3NC(C)=O)[C@@H](O)C2O)C(O)C1NC(C)=O (stereo partly specified) |  | inconclusive: 12.6 µM [inhibitor, partial curve, poor fit]
COc1ccc(NC(=S)Nc2ccc3nc(C)c(C)nc3c2)cc1 |  | active: 44.7 µM
CCC(C(=O)Nc1ccccc1C(=O)N1CCOCC1)N1C(=O)c2ccccc2C1=O (stereo unspecified) |  | inconclusive: 3.16 µM [inhibitor, partial curve, poor fit]
O=C(Cc1c(F)cccc1Cl)Nc1cccc(S(=O)(=O)NC2=NCCCCC2)c1 | inactive: -18% [at 0.501 µM] | 
COc1ccc2c(c1)C1NC(=S)NC(C)(O2)C1C(=O)Nc1ccc(C)cc1C (stereo unspecified) |  | inconclusive: 89.1 µM [inhibitor, single point]
CN1C(=O)/C(=N/OC(=O)c2ccccc2)c2ccccc21 | inconclusive: -85.1% [inhibitor] [at 0.0925 µM] | 
O=C(Nc1ccc([N+](=O)[O-])cc1)Nc1nc(-c2ccc(Cl)s2)cs1 |  | active: 15.8 µM
CCC1(C)NC(C(=O)O)Cc2c1[nH]c1ccccc21 (stereo unspecified) |  | inconclusive: 79.4 µM [inhibitor, single point]
CC(=N\NC(=O)c1ccccc1)/C(=N/O)C(=O)Nc1ccccc1 | inactive: 23.6% [at 102 µM] | 
COc1cc(NS(=O)(=O)c2ccc(NC(=S)NC(=O)/C=C/c3ccc(OC)c(OC)c3)cc2)ncn1 |  | active: 39.8 µM
COc1ccc(CCNS(=O)(=O)c2ccc(F)c(C(=O)Nc3ccc(Cl)cc3)c2)cc1OC | inactive: -4.66% | 
Cc1cccc(CNC(=O)CN2C(=O)C3CCCCN3c3ccc(C(=O)N4CCCC4)cc32)c1 (stereo unspecified) | inactive: 6.49% | 
CC1CC2C3CCC4=CC(=O)C=C[C@@]4(C)[C@]3(F)C(O)C[C@]2(C)[C@]1(O)C(=O)COP(=O)(O)O (stereo partly specified) | inactive: -1.03% [at 2.33 µM] | 
COc1ccc(F)cc1C(=O)C1CCCN(C(=O)c2ccc(C(C)=O)s2)C1 (stereo unspecified) |  | inconclusive: 39.8 µM [inhibitor, partial curve]
CCC(=O)N1CCc2cc(CNC(=O)Nc3cc(C)ccc3C)ccc21 | inactive: -17.1% | 
Cc1ccc(/C=C/C(=O)O)cc1S(=O)(=O)N(C)CCO | inactive: -11.1% [at 102 µM] | 
CCOC(=O)c1c(C)oc2c1c(C=NCCC(=O)O)c(O)c1ccccc12 |  | active: 50.1 µM
Cc1ccc2nc(N3C(=O)C(O)=C(C(=O)c4ccc(C)o4)C3c3cccc(O)c3)sc2c1 (stereo unspecified) |  | active: 31.6 µM
O=C(CCn1c(=O)oc2ccc(Cl)cc21)N1CCN(c2ccccc2)CC1 | inactive: 11% [at 102 µM] | 
CCOC(=O)CSc1ccc2nnc(-c3ccncc3)n2n1 |  | inconclusive: 22.4 µM [inhibitor, partial curve, poor fit]
CC(=O)c1ccc(Nc2nc3ccccc3nc2-n2nc(C)cc2C)cc1 | inactive: 13.9% | 

Source: PubChem BioAssay AID504332 (National Center for Advancing Translational Sciences (NCATS), 2011)
